# Measured values: PubChem BioAssay AID504845 (National Center for Advancing Translational Sciences (NCATS), 2011)
# In all, about 390,000 compounds went through this assay and about 150 (0.038%) were called active. The shares of active, inactive and inconclusive entries below differ from those in the screen. The call rests on the fitted dose curve; in most records, active means well fitted inhibition curve with a large enough effect; inconclusive means small, poorly fitted or top-dose-only effect; inactive means no such curve, though single readings can be large or run the other way. Potencies beside an inconclusive call are fits to weak or partial responses and may not hold up.
# Target: Regulator of G-protein signaling 4 (Homo sapiens) (UniProt P49798)
# Test: Inhibitors of Regulator of G Protein Signaling (RGS) 4: qHTS; further: nearly all actives have a fitted effect of over 75% in size
# Settings: Transcreener GDP fluorescence polarization, RGS4-accelerated GTP hydrolysis; series mostly up to 114 µM
# How it was run: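 MLSMR compounds (23 nl, pin-transferred) preincubated 10 min at room temperature with a 500nM (2x) first reagent, then RGS4 at 900nM (2x) plus Transcreener GDP mix added; fluorescence polarization (620/688 nm) read before and after 90 min at 30 °C.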
# On the % scale 0 is the no-effect control and ±100 the full control effect; potency means the concentration at half of the fitted maximal effect; tags describe the fitted curve by direction and shape.
# UniProt P49798, sequence (P49798 whole entry, looked up): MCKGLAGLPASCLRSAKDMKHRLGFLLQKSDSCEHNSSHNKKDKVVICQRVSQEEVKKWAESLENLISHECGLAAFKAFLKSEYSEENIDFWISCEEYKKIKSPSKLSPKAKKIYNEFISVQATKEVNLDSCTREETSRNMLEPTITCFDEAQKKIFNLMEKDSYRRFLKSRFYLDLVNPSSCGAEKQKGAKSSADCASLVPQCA
SMILES,Potency,"activity change, negative = inhibition"
O=S(=O)(c1ccc(Cl)cc1)N1CCC2(CC1)CO2,"inconclusive: 20 µM [inhibitor, full curve, poor fit]",–
COc1ccc(CNC(=O)c2nn(C)c3c2CS(=O)(=O)c2ccccc2-3)cc1,"inconclusive: 89.1 µM [inhibitor, single point]",–
O=C(O)c1ccccc1SC1CC(=O)N(c2cccc3ccccc23)C1=O (stereo unspecified),"inconclusive: 39.8 µM [inhibitor, partial curve, poor fit]",–
C=C1CC[C@H](O)C/C1=C/C=C1\CCC[C@]2(C)C([C@H](C)CC[C@@H](O)C(C)(C)O)CC[C@@H]12 (stereo partly specified),"inconclusive: 0.0067 µM [inhibitor, full curve, poor fit]",–
Cc1cc(C)nc(N/C(=N\S(=O)(=O)Cc2ccccc2)Nc2cccc(Cl)c2C)n1,inactive,–
CCC(C(=O)Nc1ccccc1OC)n1c(C(=O)OC)cc2sc(Cl)cc21 (stereo unspecified),inactive,–
COc1ccc(CCN(C)C(=O)CN2C(=O)c3ccccc3S2(=O)=O)cc1OC,"inconclusive: 79.4 µM [inhibitor, partial curve, poor fit]",–
O=C1NC(c2ccccc2)Nc2c1sc(=S)n2-c1ccccc1 (stereo unspecified),"inconclusive: 50.1 µM [inhibitor, partial curve, poor fit]",–
O=C(O)c1cc(/C=C/C(=O)c2cc(F)ccc2O)c2c(c1)COCO2,"inconclusive: 50.1 µM [inhibitor, partial curve, poor fit]",–
O=C(N/N=C/c1ccc(F)cc1)c1cc(-c2ccccn2)nc2ccccc12,inactive,–
CN(C)S(=O)(=O)c1cccc(NC(=S)N/N=C/c2ccc(O)c(O)c2O)c1,"inconclusive: 31.6 µM [inhibitor, full curve, poor fit]",–
COc1ccc(-n2nnnc2SCC(=O)Nc2ccc3c(c2)OCCO3)cc1OC,"inconclusive: 50.1 µM [inhibitor, partial curve, poor fit]",–
O=C(Nc1nccs1)C1CCCN1S(=O)(=O)c1cccc2cccnc12 (stereo unspecified),"inconclusive: 35.5 µM [inhibitor, partial curve, poor fit]",–
Cc1nc2ccc(S(=O)(=O)NCC(=O)NC(C)c3ccccc3)cc2s1 (stereo unspecified),inactive,–
Cc1cccc2nc(-c3cccnc3)c(Nc3ccccc3)n12,inactive,–
O=C(N/N=C/c1cccnc1)c1cc2c(ccc3ccccc32)o1,"inconclusive: 39.8 µM [inhibitor, full curve, poor fit]",–
O=C(c1cccnc1)N1N=C(c2cccs2)CC1c1ccc(F)cc1 (stereo unspecified),inactive,–
COc1cccc(N2CCN(C(=O)CN3C(=O)COc4ccc(S(=O)(=O)N5CCC(C)CC5)cc43)CC2)c1,inactive,–
O=C(O)c1cccc(S(=O)(=O)Nc2cc(Cl)ccc2Cl)c1,inactive,–
COc1ccc(N(C(=O)c2ccco2)C(C(=O)NC2CCCC2)c2cccs2)cc1OC (stereo unspecified),"inconclusive: 50.1 µM [inhibitor, partial curve, poor fit]",–
O=c1c2ccccc2sn1-c1ccc(Cl)c(S(=O)(=O)N2CCOCC2)c1,inactive,–
CNC(=O)[C@H]1O[C@H](n2cnc3c(NCc4cccc(I)c4)ncnc32)[C@@H](O)[C@@H]1O,inactive,–

SMILES,Potency,"activity change, negative = inhibition"
CC1CCc2c(sc(NC(=O)COc3ccccc3C(C)(C)C)c2C#N)C1 (stereo unspecified),"inconclusive: 17.8 µM [inhibitor, full curve, poor fit]",–
O=C1/C(=C/c2ccc(N3CCOCC3)o2)SC(=Nc2ccccc2)N1CCc1c[nH]c2ccccc12,"inconclusive: 56.2 µM [inhibitor, partial curve, poor fit]",–
C=CCc1ccc(OCCCOc2ccc(C)cc2OC)c(OC)c1,–,inactive: 4.23% [at 11.4 µM]
COc1ccc(C(=O)Nc2nnc(C(F)(F)F)s2)cc1,"inconclusive: 79.4 µM [inhibitor, partial curve, poor fit]",–
CCCC1(C)C(C#N)C(=O)NC(=O)C1C#N (stereo unspecified),inactive,–
Cc1ccc2nc(-c3ccc(NC(=O)CN4CCN(C(=O)c5ccco5)CC4)cc3)sc2c1,"inconclusive: 20 µM [inhibitor, full curve, poor fit]",–
O=C(CCOc1ccccc1)N(Cc1cccnc1)c1nc2ccc(F)cc2s1,"inconclusive: 44.7 µM [inhibitor, partial curve, poor fit]",–
COc1ccc(C)cc1NC(=O)CO/N=C(\N)CC(=O)NC1CCCCC1,"inconclusive: 89.1 µM [inhibitor, single point]",–
CCc1ccc(C(C)NC(=O)C2(C)CC2(Br)Br)cc1 (stereo unspecified),inactive,–
Cc1cc(NC(=O)CSc2nc(Cc3ccc(O)cc3)c(C)[nH]2)no1,inactive,–
C=CCn1cccc(C(=O)Nc2cc(OC)c(OC)c(OC)c2)c1=O,"inconclusive: 28.2 µM [inhibitor, full curve, poor fit]",–
Cc1ccc(/C=C2\C(=O)Nc3ccccc32)o1,"inconclusive: 70.8 µM [inhibitor, partial curve, poor fit]",–
N=c1c(C(=O)NCC2CCCO2)cc2c(=O)n3ccccc3nc2n1C1CCCCC1 (stereo unspecified),inactive,–
S=c1[nH]nc(-c2cccs2)n1/N=C/c1c(Cl)cccc1Cl,"inconclusive: 39.8 µM [inhibitor, partial curve, poor fit]",–
O=C(/C=C/c1ccc([N+](=O)[O-])cc1)c1cccnc1,"inconclusive: 17.8 µM [inhibitor, full curve, poor fit]",–
CC(=O)OCC1=C(C(=O)O)N2C(=O)C(NC(=O)c3ccc(COc4cccc(Cl)c4Cl)o3)C2SC1 (stereo unspecified),"inconclusive: 31.6 µM [inhibitor, full curve, poor fit]",–
O=C(C1CCC(CNS(=O)(=O)c2cccc3nsnc23)CC1)N1CC=C(c2ccccc2)CC1 (stereo unspecified),inactive,–
Cc1ccccc1NC(=O)CSc1nc2cc3c(cc2cc1C)CCC3,inactive,–
CC(C)(C)c1ccc(/C=N/n2cnnc2)cc1,"inconclusive: 100 µM [inhibitor, single point]",–
CCCCN(CC)C(=O)c1cc2c(=O)n3cccc(C)c3nc2s1,"inconclusive: 39.8 µM [inhibitor, partial curve, poor fit]",–
COc1cc(NC(=O)CCC(=O)N2CCN(S(=O)(=O)c3ccc(C)cc3)CC2)cc(OC)c1,inactive,–
C(=N\N1CCOCC1)/c1nc(-c2ccccc2)n2ccccc12,inactive,–

SMILES,Potency,"activity change, negative = inhibition"
CS(=O)(=O)N(CC(=O)Nc1cccc(Cl)c1Cl)c1ccccc1,inactive,–
O=C(Oc1ccccc1C(=O)Nc1ccccc1)c1ccc(Br)c([N+](=O)[O-])c1,inactive,–
COc1cc2c(cc1OC)C(c1ccsc1)CC(=O)N2 (stereo unspecified),"inconclusive: 89.1 µM [inhibitor, single point]",–
Cc1nc(N2CCCCC2)nc(N2CCCCC2)c1C=O,"inconclusive: 44.7 µM [inhibitor, partial curve, poor fit]",–
CCCCn1c(SCC(=O)c2ccc3c(c2)OCCO3)nnc1-c1ccco1,"inconclusive: 50.1 µM [inhibitor, partial curve, poor fit]",–
COc1ccccc1-n1cnc2c(c1=O)c1nc3ccccc3nc1n2-c1ccc(C)cc1,inactive,–
O=C(CN1CCCCC1)Nc1nnc(-c2ccc([N+](=O)[O-])cc2)s1,"inconclusive: 100 µM [inhibitor, partial curve, poor fit]",–
COc1cccc(-c2cc(C(F)(F)F)nc(NCc3ccco3)n2)c1,"inconclusive: 50.1 µM [inhibitor, partial curve, poor fit]",–
COc1ccc2cc(C#N)c(NC(C)C)nc2c1,"inconclusive: 70.8 µM [inhibitor, single point]",–
CC1(C)Cc2c(sc(NC(=O)c3ccco3)c2C(=O)O)CO1,inactive,–
COc1ccc(C(=O)Nc2nc(-c3ccc(S(=O)(=O)N4CCOCC4)cc3)cs2)cc1,"inconclusive: 89.1 µM [inhibitor, partial curve, poor fit]",–
COC(=O)c1nn(-c2ccccc2)c(=O)cc1O,"inconclusive: 89.1 µM [inhibitor, single point]",–
O=C(CSc1nnc(-c2ccccc2)c(-c2ccccc2)n1)NC1CCS(=O)(=O)C1 (stereo unspecified),"inconclusive: 50.1 µM [inhibitor, partial curve, poor fit]",–
O=c1cc(O)c2sc(Nc3ccc(F)c(Cl)c3)nc2[nH]1,"inconclusive: 35.5 µM [inhibitor, full curve, poor fit]",–
CCOc1ccc2c(c1)n([O-])c1c([n+]2=O)CCCC1,"inconclusive: 79.4 µM [inhibitor, partial curve, poor fit]",–
O=S(=O)(c1cccc(C(F)(F)F)c1)N1CCC(c2cc(-c3cccc4ccccc34)n[nH]2)CC1,"inconclusive: 70.8 µM [inhibitor, partial curve, poor fit]",–
O=C1c2cccc3cccc(c23)C(=O)N1/N=C/c1ccc(O)cc1O,"inconclusive: 35.5 µM [inhibitor, partial curve, poor fit]",–
Clc1cc(Cl)c(Cl)cc1Cl,inactive,–
O=C1C(F)=CC(COC(c2ccccc2)(c2ccccc2)c2ccccc2)OC1n1cc(F)c(=O)[nH]c1=O (stereo unspecified),"inconclusive: 44.7 µM [inhibitor, partial curve, poor fit]",–
O=C(COC(=O)c1ccccc1-n1cnnn1)c1ccc(Br)cc1,inactive,–
O=[N+]([O-])c1cc(S(=O)(=O)NCCCN2CCOCC2)ccc1Cl,"inconclusive: 70.8 µM [inhibitor, single point]",–
COc1cccc(/C=N/NC(=O)c2cc3cc([N+](=O)[O-])ccc3s2)c1O,"inconclusive: 25.1 µM [inhibitor, full curve, poor fit]",–
